Some of the results follow.
What was measured:
HSkMC = human skeletal muscle cells; assay: cytotoxicity call (relative viability < 0.9); conditions: 10 µM
HepG2 = assay: cytotoxicity call (relative viability < 0.9); conditions: 10 µM
S. aureus RN4220 = assay: growth inhibition call (relative growth <= 0.2); conditions: 50 µM

SMILES | cytotoxicity call (HSkMC) | cytotoxicity call (HepG2) | growth inhibition call (S. aureus RN4220)
O=C(NCCCN1CCOCC1)c1ccc(Cl)cc1 | inactive | inactive | inactive
C[C@@H]1CN([C@@H](C)CO)C(=O)Cc2cc(NS(=O)(=O)c3ccc(F)cc3)ccc2O[C@H]1CN(C)Cc1ccc(-c2ccccc2)cc1 | inactive | inactive | inactive
C[C@@H]1CCCCO[C@@H](CN(C)CC2CCCCC2)[C@@H](C)CN([C@H](C)CO)C(=O)c2cc(NC(=O)NC3CCCCC3)ccc2O1 | inactive | inactive | inactive
C[C@@H]1CCCCO[C@H](CN(C)C)[C@H](C)CN([C@@H](C)CO)C(=O)c2cc(NC(=O)Nc3ccc(C(F)(F)F)cc3)ccc2O1 | inactive | active | inactive
NS(=O)(=O)c1cc2c(cc1Cl)NC(C(Cl)Cl)NS2(=O)=O (configuration not stated) | inactive | inactive | inactive
C[C@H]1CN([C@@H](C)CO)C(=O)c2cc(C#Cc3ccccn3)cnc2O[C@H]1CN(C)C(=O)c1cnccn1 | inactive | inactive | inactive
COc1ccc(CN(C)C[C@H]2OCCCC[C@H](C)Oc3ccc(NC(=O)CCC(F)(F)F)cc3C(=O)N([C@@H](C)CO)C[C@@H]2C)cc1 | inactive | inactive | inactive
O=C(CN1CCOCC1)N[C@@H]1CC[C@H](CCNC(=O)C2CCC2)O[C@H]1CO | inactive | inactive | inactive
COCC#Cc1ccc2c(c1)O[C@H](CN(C)C(=O)C1CCCCC1)[C@H](C)CN([C@@H](C)CO)S2(=O)=O | inactive | inactive | inactive
COCCNC(=O)C[C@H]1C[C@@H]2c3cc(NC(=O)COC)ccc3O[C@@H]2[C@H](CO)O1 | inactive | inactive | inactive
C[C@H](CO)N1C[C@H](C)[C@@H](CN(C)C(=O)C2CCCCC2)Oc2cc(C#Cc3ccncc3)ccc2S1(=O)=O | inactive | active | inactive
C[C@@H]1CN([C@@H](C)CO)C(=O)c2cc(NS(=O)(=O)c3ccc(F)cc3)ccc2O[C@H]1CN(C)Cc1ccc(-c2ccccc2)cc1 | inactive | inactive | inactive
C[C@@H]1CN([C@H](C)CO)S(=O)(=O)c2ccc(-c3cccnc3)cc2O[C@H]1CN(C)CC1CCOCC1 | inactive | inactive | inactive
C[C@H]1CN([C@@H](C)CO)C(=O)c2c(c3ccccc3n2C)-c2ccccc2CO[C@@H]1CN(C)Cc1ccc(O)cc1 | inactive | inactive | inactive
C[C@@H]1CN([C@H](C)CO)C(=O)Cc2cc(NC(=O)Cc3ccccc3)ccc2O[C@@H]1CN(C)S(=O)(=O)c1ccccc1 | inactive | inactive | inactive
C[C@@H]1CCCCO[C@H](CN(C)C(=O)Nc2ccccc2)[C@@H](C)CN([C@H](C)CO)C(=O)c2cc(NC(=O)Nc3cccc4ccccc34)ccc2O1 | inactive | inactive | inactive
Cc1c(-c2c(-c3ccc(F)o3)sc3ncnc(O[C@H](Cc4ccccc4OCc4ccnn4CC(F)(F)F)C(=O)O)c23)ccc(OCCN2CCN(C)CC2)c1Cl | active | active | active
C[C@H](CO)N1C[C@H](C)[C@@H](CN(C)Cc2ccc(C(=O)O)cc2)Oc2ccc(NC(=O)Cn3cnnn3)cc2C1=O | inactive | inactive | inactive
C[C@H]1CCCCO[C@H](CN(C)S(=O)(=O)c2ccccc2)[C@@H](C)CN([C@@H](C)CO)C(=O)c2cc(NC(=O)Nc3ccc4c(c3)OCO4)ccc2O1 | inactive | active | inactive
Cc1ccc(S(=O)(=O)N(C)C[C@@H]2Oc3ccc(NC(=O)CCN4CCOCC4)cc3C(=O)N([C@@H](C)CO)C[C@H]2C)cc1 | inactive | inactive | inactive
CCS(=O)(=O)C1CNC1 | inactive | inactive | inactive
C[C@@H]1CN([C@H](C)CO)S(=O)(=O)c2ccc(C#CC3CC3)cc2O[C@@H]1CN(C)Cc1ccccc1F | inactive | inactive | inactive
C[C@H](CO)N1C[C@H](C)[C@@H](CN(C)C(=O)NC2CCCCC2)OCCCC[C@H](C)Oc2ccc(NC(=O)c3ccncc3)cc2C1=O | inactive | inactive | inactive
C[C@H]1CN([C@@H](C)CO)C(=O)c2cc(NC(=O)Cn3cnnn3)ccc2O[C@H]1CN(C)C(=O)Nc1ccccc1 | inactive | active | inactive
C[C@H]1CN([C@@H](C)CO)S(=O)(=O)c2ccc(-c3ccc(C(=O)N(C)C)cc3)cc2O[C@@H]1CN(C)C(=O)C1CCOCC1 | inactive | inactive | inactive
C[C@H](CO)N1C[C@H](C)[C@@H](CN(C)C(=O)Nc2ccc(F)cc2)OCCCC[C@H](C)Oc2ccc(NC(=O)c3ccncc3)cc2C1=O | inactive | inactive | inactive
C[C@H](CO)N1C[C@H](C)[C@H](CN(C)C(=O)Nc2ccc3c(c2)OCO3)Oc2ncc(Br)cc2C1=O | inactive | inactive | inactive

SMILES | cytotoxicity call (HSkMC) | cytotoxicity call (HepG2) | growth inhibition call (S. aureus RN4220)
O=C(C[C@@H]1CC[C@@H]2[C@H](COC[C@H](O)CN2C(=O)c2ccc3c(c2)OCO3)O1)NCCN1CCCC1 | inactive | inactive | inactive
C[C@H](CO)N1C[C@H](C)[C@H](CN(C)S(=O)(=O)c2ccc(Cl)cc2)Oc2ccc(NC(=O)c3ccncc3)cc2CC1=O | inactive | inactive | inactive
[N-]=[N+]=Nc1ccccc1C[C@@]1(C(=O)NC[C@@H](O)CO)N=C(c2ccc(OCCCO)cc2)O[C@@H]1c1ccccc1 | inactive | inactive | inactive
CSc1nc2ccc(N)cc2s1 | inactive | inactive | inactive
C=CCOC(=O)[C@@H]1[C@H]2C(=O)O[C@H](c3ccccc3)[C@H](c3ccccc3)N2[C@H](c2ccc(OCCOC(=O)[C@@H]3C[C@@H]4C(=O)N5CCC[C@H]5C(=O)N4[C@@H]3c3cccc(OCCO)c3)cc2)[C@@]12C(=O)Nc1ccc(I)cc12 | inactive | inactive | inactive
C[C@@H]1CN([C@@H](C)CO)C(=O)c2cc(NC(=O)C3CCCCC3)ccc2O[C@H]1CN(C)Cc1ccc(Oc2ccccc2)cc1 | inactive | inactive | inactive
COc1ccc(S(=O)(=O)Nc2ccc3c(c2)C(=O)N([C@@H](C)CO)C[C@@H](C)[C@@H](CN(C)C(=O)C2CCCCC2)OCCCC[C@H](C)O3)cc1 | inactive | inactive | inactive
COc1ccc(CN(C)C[C@H]2OCCCC[C@@H](C)Oc3ccc(NC(=O)Nc4ccc5c(c4)OCO5)cc3C(=O)N([C@H](C)CO)C[C@@H]2C)cc1 | inactive | inactive | inactive
CC(C)NC(=O)Nc1ccc2c(c1)CC(=O)N([C@@H](C)CO)C[C@H](C)[C@H](CN(C)S(=O)(=O)c1cn(C)cn1)O2 | inactive | inactive | inactive
C[C@@H]1CN([C@@H](C)CO)C(=O)c2cc(NS(=O)(=O)c3cn(C)cn3)ccc2O[C@H]1CN(C)Cc1ccncc1 | inactive | inactive | inactive
Cc1ccc(S(=O)(=O)Nc2cccc3c2O[C@H](CN(C)Cc2ccc(-c4ccccc4)cc2)[C@H](C)CN([C@H](C)CO)C3=O)cc1 | inactive | active | inactive
Cc1ccc(S(=O)(=O)[N-]Cl)cc1.[Na+] | inactive | inactive | inactive
CCN(CC)CCNC(=O)c1cc(Cl)c(N)cc1OC.Cl | inactive | inactive | inactive
O=c1c(-c2ccc(O)cc2)coc2c([C@H]3O[C@H](CO)[C@@H](O)[C@H](O)[C@H]3O)c(O)ccc12 | inactive | inactive | inactive
C[C@@H]1CN([C@H](C)CO)C(=O)Cc2cc(NC(=O)CCCN(C)C)ccc2O[C@@H]1CN(C)S(=O)(=O)c1ccc(F)cc1 | inactive | inactive | inactive
COc1cccc(OCc2ccc(Cn3nc(NC(=O)NCc4ccccc4OC)c4ccccc43)cc2)c1 | inactive | inactive | inactive
Cc1noc(C)c1S(=O)(=O)Nc1ccc2c(c1)CC(=O)N([C@H](C)CO)C[C@H](C)[C@@H](CN(C)S(=O)(=O)c1c(C)noc1C)O2 | inactive | inactive | inactive
C[C@H]1CCCCO[C@H](CN(C)Cc2ccc(Cl)c(Cl)c2)[C@@H](C)CN([C@@H](C)CO)C(=O)c2cc(NC(=O)Nc3cccc4ccccc34)ccc2O1 | inactive | inactive | inactive
C[C@H](CO)N1C[C@H](C)[C@@H](CN(C)Cc2ccc(Oc3ccccc3)cc2)Oc2ccc(NC(=O)CCC(F)(F)F)cc2C1=O | inactive | inactive | inactive
C[C@@H]1CN([C@@H](C)CO)C(=O)c2cc(NC(=O)C3CCCCC3)ccc2O[C@@H](C)CCCCO[C@@H]1CN(C)C(=O)Nc1ccc2c(c1)OCO2 | inactive | inactive | inactive
COc1ccc(S(=O)(=O)Nc2ccc3c(c2)CC(=O)N([C@H](C)CO)C[C@H](C)[C@H](CN(C)S(=O)(=O)c2ccccc2)O3)cc1 | inactive | inactive | inactive
C[C@@H]1CCCCO[C@@H](CN(C)CC2CC2)[C@@H](C)CN([C@H](C)CO)C(=O)c2cc(NC(=O)Cc3ccccc3)ccc2O1 | inactive | inactive | inactive
Cc1noc(C)c1NC(=O)N(C)C[C@@H]1OCCCC[C@H](C)Oc2ccc(NC(=O)c3ccccc3)cc2C(=O)N([C@@H](C)CO)C[C@H]1C | inactive | inactive | inactive
Cn1c(=O)sn(-c2ccccc2)c1=O | inactive | inactive | inactive
C[C@@H]1CN([C@H](C)CO)S(=O)(=O)c2ccc(-c3cncnc3)cc2O[C@@H]1CN(C)C(=O)c1ccc2c(c1)OCO2 | inactive | inactive | inactive
O=C(C[C@H]1CC[C@H](NC(=O)Cc2ccccn2)[C@@H](CO)O1)NCCCN1CCOCC1 | inactive | inactive | inactive
C[C@@H]1CCCCO[C@@H](CN(C)S(=O)(=O)c2ccc(Cl)cc2)[C@@H](C)CN([C@@H](C)CO)C(=O)c2cc(NC(=O)Nc3ccc(F)cc3)ccc2O1 | inactive | inactive | inactive
